# Measured values taken from the BET-seq Pho4 binding data (Le et al. 2018).
# The other results are listed elsewhere or left out. These are noisy estimates, calculated here from bound and input reads.
# Target: T1, Pho4 (S. cerevisiae) (UniProt P07270)
# T1 sequence: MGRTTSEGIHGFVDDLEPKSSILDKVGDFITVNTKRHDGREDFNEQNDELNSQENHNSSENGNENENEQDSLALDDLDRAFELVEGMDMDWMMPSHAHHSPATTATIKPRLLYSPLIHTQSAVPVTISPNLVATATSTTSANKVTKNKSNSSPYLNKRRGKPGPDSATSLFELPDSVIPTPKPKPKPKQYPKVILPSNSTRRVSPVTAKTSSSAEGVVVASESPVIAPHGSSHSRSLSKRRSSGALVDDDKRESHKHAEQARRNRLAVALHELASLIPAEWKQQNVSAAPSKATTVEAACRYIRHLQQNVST
# Assay: relative binding free energy (BET-seq); higher = weaker binding
# Conditions: reference: library average
row,Sequence,relative binding free energy [kcal/mol]
1,TGCGTCACGTGCGTTG,0.13
2,GTGGGCACGTGGGACG,-0.04
3,TGATCCACGTGGGTTA,-0.09
4,GGTTGCACGTGGTGGA,0.06
5,TGCAGCACGTGTTGAT,-0.09
6,TGGGTCACGTGTTGGG,0.19
7,TGTTGCACGTGGATTA,-0.01
8,TTTGGCACGTGTAAGG,-0.01
9,GGAGTCACGTGGTCAG,0.02
10,TATCGCACGTGGATTG,-0.02
11,CGTTTCACGTGCAAGG,0.32
12,GGGTTCACGTGGCGCA,0.34
13,GGGGTCACGTGAGAGC,0.24
14,GAAGGCACGTGGGTGT,-0.12
15,TAAGGCACGTGAGATG,0.2
16,GCTGTCACGTGGTCGT,0.21
17,CGTAGCACGTGTGAAG,0
18,ATGGTCACGTGCGTGA,0.07
19,TGCTGCACGTGATGTA,0.12
20,CGAGTCACGTGAGGGT,0.26
21,CGGTTCACGTGTGAGC,0.32

row,Sequence,relative binding free energy [kcal/mol]
1,TTGCGCACGTGGTATT,-0.14
2,AAATGCACGTGAGTGC,0.21
3,TAGCACACGTGGGTTG,-0.08
4,TTGTGCACGTGCTACG,0.18
5,GGGCCCACGTGTGTGG,0.04
6,TCTCGCACGTGGGGGA,-0.26
7,GGGGGCACGTGATGAT,0.01
8,GCGTGCACGTGGTTAT,0.05
9,TGATTCACGTGTATTT,0.17
10,GTTAACACGTGTTGTG,-0.01
11,GTAGACACGTGAGTAT,0.3
12,GGGCTCACGTGTATAG,0.3
13,TGTGACACGTGTGAAT,0.05
14,TTGTGCACGTGAAAAG,0.18
15,TTGGCCACGTGGTATG,-0.09
16,ACGTACACGTGGGAGT,-0.04
17,GGTTGCACGTGTTAAA,0.12
18,GGCTCCACGTGGGGGG,-0.06
19,TGAGCCACGTGTGGAA,0.12
20,TTGAACACGTGTAGGA,0
21,CGGACCACGTGGGGGG,-0.34

row,Sequence,relative binding free energy [kcal/mol]
1,TATATCACGTGTAATA,0.17
2,GGAAGCACGTGCGGGA,-0.19
3,GTCATCACGTGTGGGC,0.16
4,TTAATCACGTGTTGCT,0.04
5,GGCAGCACGTGAGGGA,0.16
6,AGTGACACGTGGCAGG,-0.12
7,AGGGACACGTGGCATT,-0.02
8,GAAATCACGTGTGAGG,0.25
9,TTAATCACGTGATAGA,0.28
10,GTGTTCACGTGGTATC,0.29
11,CTGTGCACGTGTAGTA,0.04
12,TGTTGCACGTGTTTCG,0.09
13,TGTGTCACGTGTAGCT,-0.01
14,TGGGACACGTGCCGTA,0.09
15,AGGTGCACGTGATGGA,0.11
16,CGGGTCACGTGGGGGA,-0.06
17,AGAGGCACGTGTGGCG,-0.03
18,TGGTACACGTGGCGTG,0.03
19,AGGGGCACGTGACATT,-0.1
20,GGGCACACGTGCGGGA,0.1
21,TAAAACACGTGGTGGT,-0.05
